The list shows a part of the results. The full chains were built here from the parent and the listed change. Inactive controls read about 0.05.
B1: TEV protease; numbered along this chain (parent)
chain: MGESLFKGPRDYNPISSSICHLTNESDGHTTSLYGIGFGPFIITNKHLFRRNNGTLVVQSLHGVFKVKDTTTLQQHLVDGRDMIIIRMPKDFPPFPQKLKFREPQREERICLVTTNFQTKSMSSMVSDTSCTFPSGDGIFWKHWIQTKDGQCGSPLVSTRDGFIVGIHSASNFTNTNNYFTSVPKNFMELLTNQEAQQWVSGWRLNADSVLWGGHKVFMVKPEEPFQPVKEATQL

Variants of: B1
Assay: raw area under fraction-flipped curve 0-4 h after induction (AUC4h, not background-subtracted), DNA-recorder readout of cleavage of the substrate (dimensionless); higher = more cleavage of the substrate by the protease variant
Details: temperature: 34 °C; time window: 0-4 h after rhamnose induction
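Also: Bxb1 expression induced with 0.2% (w/v) L-rhamnose at OD600 near 0.5, cultures sampled hourly, flipped fraction per protease–substrate barcode pair counted by paired-end Illumina sequencing.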

Row | Variant | area with substrate ENQYFQS | area with substrate ENRYFQS | area with substrate ENVYFQS | area with substrate ENIYFQS | area with substrate ENNYFQS | area with substrate ENYYFQS | area with substrate ENSYFQS | area with substrate ENHYFQS | area with substrate ENPYFQS | area with substrate ENWYFQS
1 | Q97V | 0.0675 | 0.0479 | 0.0674 | – | – | – | – | – | – | –
2 | V58A | 0.036 | – | – | 0.114 | 0.083 | – | – | – | – | –
3 | G8H | – | – | 0.0584 | 0.125 | – | 0.0532 | – | – | – | –
4 | Q75L | 0.063 | – | – | – | – | – | 0.0581 | – | – | –
5 | F163C | – | – | – | 0.116 | – | – | – | 0.0764 | – | –
6 | V78Q | – | – | – | – | 0.0654 | 0.042 | – | – | – | –
7 | N193V | – | – | – | – | – | – | 0.0523 | – | – | –
8 | S135E | 0.0578 | 0.0674 | – | 0.0604 | – | – | – | 0.0751 | 0.0681 | –
9 | D137W | 0.0503 | 0.0533 | – | – | – | – | 0.0373 | – | – | 0.0546
10 | S130T | 0.0498 | – | – | 0.148 | – | – | 0.053 | – | – | –
11 | E103N | – | 0.0687 | 0.0671 | – | – | – | – | – | 0.059 | –
12 | S201F | – | 0.0543 | – | 0.0834 | 0.0494 | – | 0.0564 | 0.0725 | – | –
13 | K7R | 0.0642 | – | – | – | – | – | 0.0559 | 0.0508 | – | 0.0049

Same assay, conditions: temperature: 34 °C; time window: 0-4 h after rhamnose induction

Row | Variant | area with substrate ENKYFQS | area with substrate ENTYFQS
14 | S130T | 0.0803 | 0.0759
15 | E103N | 0.0616 | 0.0589

Source: the supplement of paper PMC12217912
